Reference: paper PMC4336329 (PLoS ONE, 2015)
In all, about 310,000 compounds went through this assay and about 2,200 (0.71%) showed an effect of 50% or more. Effects have a minus sign here. Some of the results follow.

target: human ether-à-go-go-related gene (hERG) potassium channel (human, UniProt Q12809); test: primary screen, population patch clamp on CHO cells stably expressing hERG
Sequence (Q12809 whole entry, looked up): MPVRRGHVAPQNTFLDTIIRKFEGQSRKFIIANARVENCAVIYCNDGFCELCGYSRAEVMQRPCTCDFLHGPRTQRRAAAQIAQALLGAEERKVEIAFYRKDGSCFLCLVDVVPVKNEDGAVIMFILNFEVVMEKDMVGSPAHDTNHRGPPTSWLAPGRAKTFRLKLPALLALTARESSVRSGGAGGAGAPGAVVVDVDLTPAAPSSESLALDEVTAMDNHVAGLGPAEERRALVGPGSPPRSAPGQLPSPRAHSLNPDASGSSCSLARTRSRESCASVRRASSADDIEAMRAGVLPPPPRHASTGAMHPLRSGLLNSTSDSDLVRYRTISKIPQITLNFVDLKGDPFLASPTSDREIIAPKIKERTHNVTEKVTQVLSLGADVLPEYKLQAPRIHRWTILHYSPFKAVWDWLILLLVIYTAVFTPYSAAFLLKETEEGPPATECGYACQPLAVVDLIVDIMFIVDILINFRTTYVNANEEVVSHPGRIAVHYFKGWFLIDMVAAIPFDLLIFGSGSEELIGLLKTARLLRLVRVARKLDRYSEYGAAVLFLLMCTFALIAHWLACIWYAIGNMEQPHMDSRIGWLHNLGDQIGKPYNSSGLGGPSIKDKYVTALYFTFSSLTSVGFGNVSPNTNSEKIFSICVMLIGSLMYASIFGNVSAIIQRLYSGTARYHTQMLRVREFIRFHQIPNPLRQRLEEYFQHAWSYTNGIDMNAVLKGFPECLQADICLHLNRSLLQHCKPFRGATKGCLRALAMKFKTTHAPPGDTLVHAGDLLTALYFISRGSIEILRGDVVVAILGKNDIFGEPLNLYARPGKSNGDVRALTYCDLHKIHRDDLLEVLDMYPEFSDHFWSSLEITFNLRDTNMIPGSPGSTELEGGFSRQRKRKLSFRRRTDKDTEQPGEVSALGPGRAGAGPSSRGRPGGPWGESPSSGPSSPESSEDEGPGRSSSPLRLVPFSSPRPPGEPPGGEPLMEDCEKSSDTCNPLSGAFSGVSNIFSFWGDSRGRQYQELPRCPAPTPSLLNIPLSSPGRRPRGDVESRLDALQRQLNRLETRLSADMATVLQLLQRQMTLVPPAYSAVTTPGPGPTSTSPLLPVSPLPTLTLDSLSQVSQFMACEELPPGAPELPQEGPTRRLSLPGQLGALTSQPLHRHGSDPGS

| Compound | hERG current change (%, negative = inhibition) at 1uM [%] |
| --- | --- |
| O=C(NC1=NCCS1)C1CC(=O)N(c2ccc(Cl)cc2)C1 (centres unmarked) | 7.68 |
| COc1ccc2c(c1)CC1(CN2C)C(=O)NC(=O)N(c2ccc(F)cc2)C1=O (centres unmarked) | 4.41 |
| CC[N+](CC)(CC=C(C)C)CC(=O)OC.[Cl-] | 19.5 |
| O=C(Cn1nnc(-c2ccccc2)n1)NCc1ccco1 | 7.3 |
| O=C(CSc1nc2ccccc2[nH]1)c1ccco1 | -3.42 |
| CCOC(=O)c1c(S(=O)(=O)NCC(=O)NCc2ccccc2)c(C)n(C)c1C | 13.1 |
| COc1ccc(/C=C2\SC(=S)N(CCCC(=O)N3CCN(C)CC3)C2=O)cc1 | 1.76 |
| COc1cccc(/C=C2/Oc3ccccc3N(CC(=O)NCC3CCCO3)C2=O)c1 (centres unmarked) | 19.6 |
| Cn1nccc1C(=O)Nc1ccc2c(c1)OCCO2 | -0.951 |
| Cc1cc(/C=N\NC(=O)c2cccs2)c(C)n1-c1ccc2ncccc2c1 | 10.6 |
| Cc1sc(NC(=O)CSc2ncn(-c3ccccc3)n2)nc1-c1ccccc1 | -0.472 |
| COc1ccc(C2Sc3nncn3N2Cc2ccc(C#N)cc2)cc1 (centres unmarked) | 9.19 |
| COc1ccc(COc2ncnc3ccc(Br)cc23)cc1F | 11.7 |
| O=C(CN1CCN(C(=O)C2CCCO2)CC1)Nc1ccc(F)cc1 (centres unmarked) | -4.59 |
| CCC(C)NC(=O)c1ccc(NS(=O)(=O)c2ccc3[nH]c(=O)[nH]c3c2)cc1 (centres unmarked) | 14.6 |
| CCCCN(C(=O)c1ccc2c(c1)OCO2)C1CCS(=O)(=O)C1 (centres unmarked) | 9.3 |
| CC(C)(C)OC(=O)[C@H](NC(=O)OCc1ccccc1)c1ccccc1 | 3.44 |
| CCOc1ccc(CCNC(=O)C2CCN(S(=O)(=O)CC)CC2)cc1OCC | 0.674 |
| CCC(Sc1nc2ccccc2o1)C(=O)O (centres unmarked) | 5.72 |
| Cc1cc(NS(=O)(=O)c2ccc(NC(=O)c3ccc(Cl)cc3Cl)cc2)no1 | 13.6 |
| O=C(NN1C(=O)C2C3C=CC(C4CC34)C2C1=O)c1ccc(Cl)c(Cl)c1 (centres unmarked) | 16.2 |
| CC(NS(=O)(=O)c1ccc(Cl)cc1)C(c1cccs1)N1CCN(C)CC1 (centres unmarked) | -4.72 |

| Compound | hERG current change (%, negative = inhibition) at 1uM [%] |
| --- | --- |
| CC(C)CN(C(=O)CSc1nnnn1-c1ccccc1)c1c(N)n(CC(C)C)c(=O)[nH]c1=O | 8.73 |
| Cc1cc(S(=O)(=O)NC2CCCCC2)ccc1-n1cnnn1 | 10.4 |
| COc1ccc(C(=O)N/C(=C\c2cn(C)c3ccccc23)C(=O)N2CCOCC2)cc1 | -7.16 |
| O=C(NNS(=O)(=O)c1ccc(Cl)cc1Cl)c1cc2ncc(C(F)(F)F)cc2s1 | 23.4 |
| Oc1ccc(N=Nc2n[nH]c(-c3ccc(Cl)cc3)n2)cc1 | 8.39 |
| COc1ccc(C2C=C(c3ccccc3)Nc3nc(NC(C)=O)nn32)cc1 (centres unmarked) | 7.65 |
| COc1cc(/C=C/C(=O)OCC(=O)Nc2cc(C(F)(F)F)ccc2N2CCOCC2)ccc1O | 4.12 |
| Nc1nc(CSC(=S)N2CCN(c3ccccc3)CC2)nc(Nc2ccccc2)n1 | 8.61 |
| COc1ccc(CCn2c(=O)[nH]c3cc(C(=O)NCCN4CCOCC4)ccc3c2=O)cc1OC | 8.23 |
| Cc1ccc(NC(=O)C(=O)NCCN2CCN(Cc3ccc([N+](=O)[O-])cc3)CC2)cc1 | -53.3 |
| COC(=O)/C(=C\c1ccc([N+](=O)[O-])o1)NC(=O)c1ccccc1 | -2.26 |
| C[N+]1(CCCCSc2ccc(O)cc2)CCCCC1.[I-] | -5.92 |
| O=C(NCC1CCCO1)/C(=C/c1ccc(Cl)cc1)NC(=O)c1ccccc1 (centres unmarked) | 3.15 |
| Cc1ccc(-c2c(NCCc3ccccc3)c(=O)c2=O)cc1 | 16 |
| Cc1ccc2cc3cc(C(=O)NCCCN4CCCC4)oc3nc2c1 | 20.6 |
| CCOC(=O)COc1nc(C)cc(C(F)(F)F)c1C#N | 7.77 |
| O=C(Nc1ccccc1)N1CCN(Cc2ccccc2)CC1.O=C(O)C(=O)O | 10.9 |
| CC1=C(C(=O)NC2CCCc3c2cnn3-c2cc(F)cc(F)c2)OCCO1 (centres unmarked) | -1.27 |
| Cn1nnnc1SCc1nnc(-c2ccc(Cl)cc2)o1 | 10.3 |
| C[C@H]1C/C=C/[C@H]2[C@H](O)[C@H](C)[C@@](C)(O)[C@H]3[C@H](Cc4ccccc4)NC(=O)[C@]32[C@H](O)/C=C/[C@](C)(O)C1 | 17.4 |
| Cc1ccc(C(C)C)c(OCCSc2nc3ccccc3n2CC(=O)O)c1 | 10.1 |
| COc1ccc(F)cc1C(=O)C1CCCN(C(=O)c2ocnc2C)C1 (centres unmarked) | -0.32 |

| Compound | hERG current change (%, negative = inhibition) at 1uM [%] |
| --- | --- |
| O=C(N/N=C/c1ccc([N+](=O)[O-])o1)C1CC1 | 15.1 |
| Cc1cc(O)c(Oc2cc(C)cc(O)c2O)c(O)c1 | 16.4 |
| CCC(=O)Nc1nnc(SCc2ccc(F)cc2)s1 | 5.36 |
| O=C(CNC(=O)C1COc2ccccc2O1)N/N=C/c1ccc(O)cc1O (centres unmarked) | -0.349 |
| C/C(=N\NC(=O)c1nc2ccccn2c1C)c1ccco1 | 3.86 |
| Cc1[nH]c2ccccc2c1C(=O)CSc1nc2cc(S(=O)(=O)N3CCCCC3)ccc2o1 | 9.62 |
| CC1CN(C(=O)c2cc(S(=O)(=O)N(C)c3ccc(F)cc3)ccc2Cl)CC(C)O1 (centres unmarked) | 11.4 |
| COc1ccc2c(c1)C(=O)N(c1ccccc1OC)C(=O)C2(C)C | -1.44 |
| Cc1cc2sc(C(=O)O)c(C)c2s1 | 4.13 |
| Cn1c(=O)cc(SCC(=O)NCc2ccco2)c2ccccc21 | 10.3 |
| CN(NS(=O)(=O)c1ccc(Br)cc1)c1nc(C(F)(F)F)nc2ccccc12 | 11.6 |
| CS(=O)(=O)N(CC(=O)NCCSc1ccccc1)c1ccc2c(c1)OCO2 | 5.78 |
| NS(=O)(=O)c1ccc(N/C=C\C(=O)c2ccc3ccccc3c2)cc1 | 9.29 |
| CC(OCC(O)CN(C)CCOc1ccccc1)c1ccc(Cl)cc1 (centres unmarked) | 2.33 |
| CCCCC(NS(=O)(=O)c1ccc(C)cc1)C(=O)Oc1ccc2c3c(c(=O)oc2c1)CCC3 (centres unmarked) | 8.58 |
| Cl.Nc1cccc2c(O)cccc12 | 9.58 |
| C=CCn1c(SCC(=O)c2cc(C)n(Cc3cccs3)c2C)nnc1-c1ccncc1 | 5.07 |
| O=C(Nc1cc([N+](=O)[O-])ccc1Cl)c1cccnc1 | 15.3 |
| CCCN(C(=O)COC(=O)CSc1ccc([N+](=O)[O-])cc1)C1CCS(=O)(=O)C1 (centres unmarked) | 5.95 |
| CC(=O)Nc1sc(C)c(C)c1CN1CCN(Cc2ccccc2)CC1 | 3.28 |
| CCCOc1ccc(C2c3c(oc4ccccc4c3=O)C(=O)N2CCN(CC)CC)cc1OC (centres unmarked) | -5.51 |
| Cc1c(C(=O)N2CCCCC2)nn(-c2ccc(Cl)cc2)c(=O)c1C#N | 3.42 |

| Compound | hERG current change (%, negative = inhibition) at 1uM [%] |
| --- | --- |
| CC(=O)c1ccc(NC(=O)N2CCCC(C(=O)c3ccc4c(c3)OCO4)C2)cc1 (centres unmarked) | 9.05 |
| CCCN1CC(=O)N2C(c3cccc(OC)c3OC)c3[nH]c4ccccc4c3C[C@H]2C1=O (some centres unmarked) | 14.2 |
| Cc1nn(Cc2ccc(Cl)c(Cl)c2)c(C)c1NC(=O)c1noc2c1CCCCC2 | -2.73 |
| COc1cccc(CN(C)C(=O)CN2C(=O)NC(c3ccccc3)(c3ccccc3)C2=O)c1 | -1.29 |
| CCC(=O)NC(c1ccccc1)c1nc2ccccc2[nH]1 (centres unmarked) | 20.8 |
| CCNc1nc(NC(C)C)nc(Oc2ccc(=O)n(C)n2)n1 | 17.2 |
| CC(=O)Nc1ccc(NC(=O)C(C)OC(=O)c2ccc(-n3cnnn3)cc2)cc1 (centres unmarked) | 10.1 |
| CC(C)[C@@H](C(=O)N[C@@H](Cc1ccccc1)C(=O)O)N1C(=O)N2CCc3c([nH]c4ccccc34)[C@@]2(C)C1=O | 9.64 |
| Cc1ccc(CNS(=O)(=O)c2c(C)[nH]c(=O)[nH]c2=O)cc1 | 5.94 |
| O=c1c2c(nc3c(-c4ccccc4)c[nH]n13)CCC2 | 21.1 |
| C=CCn1c(O)c(N=NC(=O)CNC(=O)c2ccncc2)c2ccccc21 | 11.7 |
| Cc1ccccc1N(CC(N)=O)S(C)(=O)=O | 9.32 |
| Cc1cc2c(cc1C)NC(CC(=O)NCc1ccccc1)C(=O)N2 (centres unmarked) | 4.14 |
| CCOc1ccc2c(c1)-c1c(ssc1=S)C(C)(C)N2 | 9.76 |
| CC(C)(Oc1ccc(Cl)cc1)C(=O)NC1CCSC1=O (centres unmarked) | -1.99 |
| O=C(/C=C/c1ccc(Cl)c(Cl)c1)NCc1ccco1 | -0.137 |
| Cc1ccc(NCc2nnc(SCC(=O)N(Cc3ccccc3)C(C)(C)C)o2)c(C)c1 | -6.21 |
| CCOC(=O)Cn1c(=O)oc2cc(S(=O)(=O)Nc3ccc(F)cc3)ccc21 | 0.832 |
| CCN1CCN(CC(=O)Nc2cc(C(F)(F)F)ccc2OCCOC)CC1.O=C(O)C(=O)O | -70.9 |
| Cc1ccc2[nH]c(=O)c(CN(CC3CCCO3)C(=S)NCc3ccco3)cc2c1 (centres unmarked) | 4.46 |
